# Screen size: about 310,000 compounds; about 2,200 (0.71%) showed an effect of 50% or more. The effect is printed as a negative number. This is one part of the list.
# Molecular target: human ether-à-go-go-related gene (hERG) potassium channel (human, UniProt Q12809)
# Assay: primary screen, population patch clamp on CHO cells stably expressing hERG
# human ether-à-go-go-related gene (hERG) potassium channel, sequence (Q12809 whole entry, looked up): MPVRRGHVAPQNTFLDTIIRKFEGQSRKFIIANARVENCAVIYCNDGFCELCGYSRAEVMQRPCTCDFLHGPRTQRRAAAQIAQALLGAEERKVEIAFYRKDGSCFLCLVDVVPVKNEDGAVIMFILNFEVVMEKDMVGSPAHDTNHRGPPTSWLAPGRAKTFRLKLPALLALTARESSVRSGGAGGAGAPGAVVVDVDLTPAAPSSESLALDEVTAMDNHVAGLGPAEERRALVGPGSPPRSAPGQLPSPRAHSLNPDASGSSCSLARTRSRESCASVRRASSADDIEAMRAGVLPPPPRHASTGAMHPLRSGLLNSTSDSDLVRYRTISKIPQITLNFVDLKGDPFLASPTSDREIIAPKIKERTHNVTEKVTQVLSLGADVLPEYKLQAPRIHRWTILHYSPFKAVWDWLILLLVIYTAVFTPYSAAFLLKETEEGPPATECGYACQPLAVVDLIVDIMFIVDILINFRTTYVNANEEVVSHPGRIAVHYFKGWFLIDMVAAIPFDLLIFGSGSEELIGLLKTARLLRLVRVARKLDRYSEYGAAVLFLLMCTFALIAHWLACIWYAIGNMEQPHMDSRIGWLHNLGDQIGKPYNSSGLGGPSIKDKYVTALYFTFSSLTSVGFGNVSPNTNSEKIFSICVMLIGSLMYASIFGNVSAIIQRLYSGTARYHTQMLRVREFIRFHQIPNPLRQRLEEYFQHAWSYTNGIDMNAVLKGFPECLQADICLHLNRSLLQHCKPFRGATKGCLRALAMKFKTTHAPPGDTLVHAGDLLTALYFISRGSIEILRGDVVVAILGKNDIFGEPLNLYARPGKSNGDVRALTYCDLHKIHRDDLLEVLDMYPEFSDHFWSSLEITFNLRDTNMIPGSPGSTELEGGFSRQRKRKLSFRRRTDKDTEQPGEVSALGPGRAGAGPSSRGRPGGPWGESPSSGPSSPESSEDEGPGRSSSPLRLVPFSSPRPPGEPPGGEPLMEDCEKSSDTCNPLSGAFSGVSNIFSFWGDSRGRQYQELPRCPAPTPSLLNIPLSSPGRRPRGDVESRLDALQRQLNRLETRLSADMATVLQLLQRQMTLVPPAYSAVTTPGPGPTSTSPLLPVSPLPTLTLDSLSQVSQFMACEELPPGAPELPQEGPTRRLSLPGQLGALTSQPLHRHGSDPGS
row,Structure (SMILES),"hERG current change (%, negative = inhibition) at 1uM"
1,S=C(Nc1ccccc1)N(Cc1ccccc1)Cc1ccncc1,-0.754%
2,COc1ccc(NC(=S)NC(NC(=O)/C=C/c2ccccc2)C(Cl)(Cl)Cl)cc1 (stereo not shown),13.5%
3,O=C(Nc1ccnn1C1CCN(Cc2c[nH]c3ccccc23)CC1)c1ccccc1,-7.62%
4,Cc1cccc(C(=O)O/N=C(\N)c2ccc(Cl)cc2)c1,3.91%
5,COc1ccc(NC(=O)C(C)N2C(=O)c3ccccc3C2=O)c(OC)c1 (stereo not shown),5.5%
6,COCCNS(=O)(=O)c1ccc2c(c1)n(C)c(=O)n2C,5.04%
7,CS(=O)(=O)N(CC(=O)N1CCc2ccccc2C1)c1ccc(Br)cc1,13.4%
8,COCCNc1nc2c(S(=O)(=O)c3cc(C)ccc3C)nnn2c2ccccc12,8.32%
9,O=C(C1=NN(c2ccccc2)C2C(=O)N(c3cccc(Cl)c3)C(=O)C12)c1ccccc1 (stereo not shown),4.74%
10,O=C(CS(=O)(=O)c1ccccc1)Nc1nc(-c2ccc(F)cc2)cs1,11.2%
11,C=CCOCCN(CC)CC,-16.8%
12,O=C(NCCCn1ccnc1)c1cc(-c2cccnc2)nc2ccc(Br)cc12,0.981%
13,O=C(N/N=C/c1ccccn1)c1[nH]c2ccc([N+](=O)[O-])cc2c1-c1ccccc1,50.2%
14,O=C(Nc1ccnn1C1CCN(Cc2ccccc2OC(F)F)CC1)c1cccc(F)c1,-1.37%
15,Cc1cnc(NC(=O)Nc2ccc(OCc3ccccc3)cc2)c(Br)c1,12%
16,CC1CCCCN1CCCNC(=O)CN1C(=O)c2cccnc2Oc2ccccc21 (stereo not shown),9.38%
17,CCCCCn1c(CN2CCN(c3cccc(Cl)c3)CC2)nc2c1c(=O)[nH]c(=O)n2C,-5.98%
18,COc1ccc(-c2ccccc2)cc1NCc1ccccc1C,5.31%
19,O=[N+]([O-])c1ccc(NCCCN2CCOCC2)c([N+](=O)[O-])c1,-13.6%
20,CC1=NNC(=O)C1CC(=O)N/N=C(/C)c1cccc([N+](=O)[O-])c1 (stereo not shown),-0.487%
21,C=CCNC(=S)Nc1ccc(F)cc1F,0.0017%
22,O=C(NC1C=CS(=O)(=O)C1)c1ccccc1 (stereo not shown),15%
23,Cc1ccc(OCC(=O)Nc2cccc(S(=O)(=O)N3CCCCC3)c2)c([N+](=O)[O-])n1,9.92%

row,Structure (SMILES),"hERG current change (%, negative = inhibition) at 1uM"
1,O=C(NCc1ccccn1)c1ccc(Cn2cc(C(F)(F)F)ccc2=O)cc1,20.4%
2,CCCCCn1cnc2c(sc3nc4c(cc32)CSC(C)(C)C4)c1=O,3.04%
3,O=C(N/N=C/c1ccc(COc2ccc(Br)cc2)o1)c1ccco1,8.04%
4,COc1ccccc1NC(=O)c1ccc2c(c1)C(=O)N(c1ccccc1OC)C2=O,14.4%
5,COc1ccc(CNC(=O)CCCC(=O)Nc2cccc(Br)c2)cc1,8.73%
6,CCCCc1cc(=O)oc2cc(OCC(=O)N3C[C@H]4C[C@@H](C3)c3cccc(=O)n3C4)ccc12,7.26%
7,Cc1cc2c(cc1S(=O)(=O)N(C)C1CCCCC1)OCC(=O)N2,5.42%
8,CSCc1nnc(NC(=O)c2ccc(S(=O)(=O)N(C)C)cc2)o1,13.8%
9,N#CCN1CCN(c2ccc(C(F)(F)F)cc2)CC1,3.72%
10,CCN(CC(=O)Nc1ccccc1C(F)(F)F)C(=O)c1ccc(N2CCCC2=O)cc1,9.77%
11,C=CCOc1ccc(CNn2cn[nH]c2=S)cc1OCC,3.12%
12,O=Cc1cn(CC(=O)NCC2CCCO2)c2ccccc12 (stereo not shown),10.2%
13,CCOC(=O)CNC(=O)Cc1ccc(Cl)cc1,10.4%
14,COc1cc(CN2CCC(C)CC2)ccc1OCc1ccccc1.O=C(O)C(=O)O,-3.21%
15,CC(C)(C)c1ccc(OCC(=O)O)cc1,12.3%
16,COc1ccccc1N1CCN(C(=O)c2cc3c(s2)CCCCC3)CC1,3.71%
17,CCOC(=O)C/C(=N\Nc1ncnc2ccccc12)c1ccccc1,15.7%
18,CCCOC(=O)C1=C(C)NC(=O)NC1c1cc2c(cc1Br)OCO2 (stereo not shown),8.29%
19,O=C(Nc1cnc2ccccn2c1=O)c1ccc(Cl)cc1,-9.09%
20,COc1ccccc1/C=C/C=N/NC(=O)c1ccco1,12%
21,Cc1c(NC(=O)c2ncn[nH]2)cccc1-c1nc2ccccc2s1,14.8%
22,CCOC(=O)c1ccc(N=C2SC(C(=O)NCCc3ccccc3)CC(=O)N2C)cc1 (stereo not shown),20.6%
23,COc1cc2cc(CN(CCCO)S(=O)(=O)c3ccccc3Cl)c(=O)[nH]c2cc1OC,2.97%

# Reference: publication PMC4336329 (PLoS ONE, 2015)
